Measurements taken from paper PMC9911399, “Two distinct binding modes provide the RNA-binding protein RbFox with extraordinary sequence specificity”.
Residue numbers refer to the chain shown, from its start. This is one part of the list.

T1: RBFOX1 RRM RbFoxmut (Fox-RRM*) (Homo sapiens, UniProt Q9NWB1 109-208, R118D;E147R;N151S;E152T)
T1 sequence: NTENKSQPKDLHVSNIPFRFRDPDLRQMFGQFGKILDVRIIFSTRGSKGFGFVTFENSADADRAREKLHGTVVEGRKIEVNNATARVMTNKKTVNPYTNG

B1: CGUCGAG (DNA:RNA)
RNA: GGGAGACCGGAAUUCAGAUUGUCCCGUCGAGUUAAAUCCCGUCGUAGCCACCA
DNA 1: CAATCTGAATTCCGGTCTCCC
DNA 2: TGGTGGCTACGACGGGATT
B2: CGAGCAC (DNA:RNA)
RNA: B1 RNA with U27A, C28G, G29C, G31C
DNA 1: CAATCTGAATTCCGGTCTCCC
DNA 2: TGGTGGCTACGACGGGATT
B3: GUGUGUC (DNA:RNA)
RNA: B1 RNA with C25G, G26U, U27G, C28U, A30U, G31C
DNA 1: CAATCTGAATTCCGGTCTCCC
DNA 2: TGGTGGCTACGACGGGATT
B4: CCAUCAU (DNA:RNA)
RNA: B1 RNA with G26C, U27A, C28U, G29C, G31U
DNA 1: CAATCTGAATTCCGGTCTCCC
DNA 2: TGGTGGCTACGACGGGATT
B5: CGACAUC (DNA:RNA)
RNA: B1 RNA with U27A, G29A, A30U, G31C
DNA 1: CAATCTGAATTCCGGTCTCCC
DNA 2: TGGTGGCTACGACGGGATT
B6: GUUGAUA (DNA:RNA)
RNA: B1 RNA with C25G, G26U, C28G, G29A, A30U, G31A
DNA 1: CAATCTGAATTCCGGTCTCCC
DNA 2: TGGTGGCTACGACGGGATT
B7: GUGCUGG (DNA:RNA)
RNA: B1 RNA with C25G, G26U, U27G, G29U, A30G
DNA 1: CAATCTGAATTCCGGTCTCCC
DNA 2: TGGTGGCTACGACGGGATT
B8: GAACGUU (DNA:RNA)
RNA: B1 RNA with C25G, G26A, U27A, A30U, G31U
DNA 1: CAATCTGAATTCCGGTCTCCC
DNA 2: TGGTGGCTACGACGGGATT
B9: ACUCGCA (DNA:RNA)
RNA: B1 RNA with C25A, G26C, A30C, G31A
DNA 1: CAATCTGAATTCCGGTCTCCC
DNA 2: TGGTGGCTACGACGGGATT
B10: GAACCAG (DNA:RNA)
RNA: B1 RNA with C25G, G26A, U27A, G29C
DNA 1: CAATCTGAATTCCGGTCTCCC
DNA 2: TGGTGGCTACGACGGGATT
B11: ACGUAUC (DNA:RNA)
RNA: GGGAGACCGGAAUUCAGAUUGUCCACGUAUCUUAAAUCCCGUCGUAGCCACCA
DNA 1: CAATCTGAATTCCGGTCTCCC
DNA 2: TGGTGGCTACGACGGGATT
B12: CACACGU (DNA:RNA)
RNA: B1 RNA with G26A, U27C, C28A, G29C, A30G, G31U
DNA 1: CAATCTGAATTCCGGTCTCCC
DNA 2: TGGTGGCTACGACGGGATT
B13: ACGUACU (DNA:RNA)
RNA: B11 RNA with U30C, C31U
DNA 1: CAATCTGAATTCCGGTCTCCC
DNA 2: TGGTGGCTACGACGGGATT
B14: ACAGCGG (DNA:RNA)
RNA: B11 RNA with G27A, U28G, A29C, U30G, C31G
DNA 1: CAATCTGAATTCCGGTCTCCC
DNA 2: TGGTGGCTACGACGGGATT
B15: UUUUCGG (DNA:RNA)
RNA: B1 RNA with C25U, G26U, C28U, G29C, A30G
DNA 1: CAATCTGAATTCCGGTCTCCC
DNA 2: TGGTGGCTACGACGGGATT
B16: CUAAAUU (DNA:RNA)
RNA: B11 RNA with A25C, C26U, G27A, U28A, C31U
DNA 1: CAATCTGAATTCCGGTCTCCC
DNA 2: TGGTGGCTACGACGGGATT
B17: UGUAUGA (DNA:RNA)
RNA: B1 RNA with C25U, C28A, G29U, A30G, G31A
DNA 1: CAATCTGAATTCCGGTCTCCC
DNA 2: TGGTGGCTACGACGGGATT
B18: CCAGCAA (DNA:RNA)
RNA: B1 RNA with G26C, U27A, C28G, G29C, G31A
DNA 1: CAATCTGAATTCCGGTCTCCC
DNA 2: TGGTGGCTACGACGGGATT
B19: CUUCGAA (DNA:RNA)
RNA: B1 RNA with G26U, G31A
DNA 1: CAATCTGAATTCCGGTCTCCC
DNA 2: TGGTGGCTACGACGGGATT
B20: GCAUACU (DNA:RNA)
RNA: B11 RNA with A25G, G27A, U30C, C31U
DNA 1: CAATCTGAATTCCGGTCTCCC
DNA 2: TGGTGGCTACGACGGGATT
B21: GGCAACA (DNA:RNA)
RNA: B11 RNA with A25G, C26G, G27C, U28A, U30C, C31A
DNA 1: CAATCTGAATTCCGGTCTCCC
DNA 2: TGGTGGCTACGACGGGATT
B22: AGAGCGU (DNA:RNA)
RNA: B11 RNA with C26G, G27A, U28G, A29C, U30G, C31U
DNA 1: CAATCTGAATTCCGGTCTCCC
DNA 2: TGGTGGCTACGACGGGATT
B23: UUCUCAC (DNA:RNA)
RNA: B11 RNA with A25U, C26U, G27C, A29C, U30A
DNA 1: CAATCTGAATTCCGGTCTCCC
DNA 2: TGGTGGCTACGACGGGATT
B24: AAAACUA (DNA:RNA)
RNA: B11 RNA with C26A, G27A, U28A, A29C, C31A
DNA 1: CAATCTGAATTCCGGTCTCCC
DNA 2: TGGTGGCTACGACGGGATT
B25: UUUUAAG (DNA:RNA)
RNA: B1 RNA with C25U, G26U, C28U, G29A
DNA 1: CAATCTGAATTCCGGTCTCCC
DNA 2: TGGTGGCTACGACGGGATT
B26: ACCAUAG (DNA:RNA)
RNA: B11 RNA with G27C, U28A, A29U, U30A, C31G
DNA 1: CAATCTGAATTCCGGTCTCCC
DNA 2: TGGTGGCTACGACGGGATT
B27: CCUGACC (DNA:RNA)
RNA: B11 RNA with A25C, G27U, U28G, U30C
DNA 1: CAATCTGAATTCCGGTCTCCC
DNA 2: TGGTGGCTACGACGGGATT
B28: UGCUGCG (DNA:RNA)
RNA: B1 RNA with C25U, U27C, C28U, A30C
DNA 1: CAATCTGAATTCCGGTCTCCC
DNA 2: TGGTGGCTACGACGGGATT
B29: UCCUUUC (DNA:RNA)
RNA: B11 RNA with A25U, G27C, A29U
DNA 1: CAATCTGAATTCCGGTCTCCC
DNA 2: TGGTGGCTACGACGGGATT
B30: AACUCGU (DNA:RNA)
RNA: B11 RNA with C26A, G27C, A29C, U30G, C31U
DNA 1: CAATCTGAATTCCGGTCTCCC
DNA 2: TGGTGGCTACGACGGGATT
B31: GAGUCGA (DNA:RNA)
RNA: B11 RNA with A25G, C26A, A29C, U30G, C31A
DNA 1: CAATCTGAATTCCGGTCTCCC
DNA 2: TGGTGGCTACGACGGGATT

Molecular target: T1, RBFOX1 RRM RbFoxmut (Fox-RRM*)
Experiment: EMSA; HiTS-Eq, 1 nM pool, 10 min; buffer printed only for the single-RNA assays: 10 mM Tris pH 7.5, 150 mM NaCl, 3.4 mM EDTA, 0.001% NP-40, 30 C
Conditions: tags: His6 N-terminal (pET28a); label: 5' 32P
Procedure, shortened: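 Purified RbFox RRM, wild type or mutant, was incubated for 10 min in 50 µL with 1 nM of a 5′-radiolabelled RNA pool carrying 7 randomized nucleotides, whose flanks were annealed to DNA oligonucleotides, over a series of increasing protein concentrations. Unbound RNA was resolved on 8% native PAGE, cut out, reverse-transcribed, barcoded by PCR and sequenced on an Illumina HiSeq 2500. Relative association constants were derived from changes in read counts for each RNA species versus the control reaction and normalised to the cognate motif.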

| Binder | binding signal |
| --- | --- |
| B1 | 0.122 KA relative to UGCAUGU |
| B2 | 0.0944 KA relative to UGCAUGU |
| B3 | 0.329 KA relative to UGCAUGU |
| B4 | 0.0963 KA relative to UGCAUGU |
| B5 | 0.0318 KA relative to UGCAUGU |
| B6 | 0.158 KA relative to UGCAUGU |
| B7 | 0.119 KA relative to UGCAUGU |
| B8 | 0.199 KA relative to UGCAUGU |
| B9 | 0.15 KA relative to UGCAUGU |
| B10 | 0.105 KA relative to UGCAUGU |
| B11 | 0.185 KA relative to UGCAUGU |
| B12 | 0.12 KA relative to UGCAUGU |
| B13 | 0.113 KA relative to UGCAUGU |
| B14 | 0.101 KA relative to UGCAUGU |
| B15 | 0.0516 KA relative to UGCAUGU |
| B16 | 0.0658 KA relative to UGCAUGU |

| Binder | binding signal |
| --- | --- |
| B17 | 0.44 KA relative to UGCAUGU |
| B18 | 0.0862 KA relative to UGCAUGU |
| B19 | 0.125 KA relative to UGCAUGU |
| B20 | 0.125 KA relative to UGCAUGU |
| B21 | 0.071 KA relative to UGCAUGU |
| B22 | 0.122 KA relative to UGCAUGU |
| B23 | 0.102 KA relative to UGCAUGU |
| B24 | 0.1 KA relative to UGCAUGU |
| B25 | 0.113 KA relative to UGCAUGU |
| B26 | 0.128 KA relative to UGCAUGU |
| B27 | 0.0903 KA relative to UGCAUGU |
| B28 | 0.193 KA relative to UGCAUGU |
| B29 | 0.061 KA relative to UGCAUGU |
| B30 | 0.122 KA relative to UGCAUGU |
| B31 | 0.104 KA relative to UGCAUGU |
